# Results published in PMC4336329 (PLoS ONE, 2015).
# Among all 310,000 compounds or so, about 14,000 (4.5%) showed an effect of 50% or more. The effect is printed as a negative number. Some of the results follow.
# Target: human ether-à-go-go-related gene (hERG) potassium channel (human, UniProt Q12809)
# Assay: primary screen, population patch clamp on CHO cells stably expressing hERG
# 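Also: peak tail current of the secondary pulse compared with the same well before compound.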
# human ether-à-go-go-related gene (hERG) potassium channel, sequence (Q12809 whole entry, looked up): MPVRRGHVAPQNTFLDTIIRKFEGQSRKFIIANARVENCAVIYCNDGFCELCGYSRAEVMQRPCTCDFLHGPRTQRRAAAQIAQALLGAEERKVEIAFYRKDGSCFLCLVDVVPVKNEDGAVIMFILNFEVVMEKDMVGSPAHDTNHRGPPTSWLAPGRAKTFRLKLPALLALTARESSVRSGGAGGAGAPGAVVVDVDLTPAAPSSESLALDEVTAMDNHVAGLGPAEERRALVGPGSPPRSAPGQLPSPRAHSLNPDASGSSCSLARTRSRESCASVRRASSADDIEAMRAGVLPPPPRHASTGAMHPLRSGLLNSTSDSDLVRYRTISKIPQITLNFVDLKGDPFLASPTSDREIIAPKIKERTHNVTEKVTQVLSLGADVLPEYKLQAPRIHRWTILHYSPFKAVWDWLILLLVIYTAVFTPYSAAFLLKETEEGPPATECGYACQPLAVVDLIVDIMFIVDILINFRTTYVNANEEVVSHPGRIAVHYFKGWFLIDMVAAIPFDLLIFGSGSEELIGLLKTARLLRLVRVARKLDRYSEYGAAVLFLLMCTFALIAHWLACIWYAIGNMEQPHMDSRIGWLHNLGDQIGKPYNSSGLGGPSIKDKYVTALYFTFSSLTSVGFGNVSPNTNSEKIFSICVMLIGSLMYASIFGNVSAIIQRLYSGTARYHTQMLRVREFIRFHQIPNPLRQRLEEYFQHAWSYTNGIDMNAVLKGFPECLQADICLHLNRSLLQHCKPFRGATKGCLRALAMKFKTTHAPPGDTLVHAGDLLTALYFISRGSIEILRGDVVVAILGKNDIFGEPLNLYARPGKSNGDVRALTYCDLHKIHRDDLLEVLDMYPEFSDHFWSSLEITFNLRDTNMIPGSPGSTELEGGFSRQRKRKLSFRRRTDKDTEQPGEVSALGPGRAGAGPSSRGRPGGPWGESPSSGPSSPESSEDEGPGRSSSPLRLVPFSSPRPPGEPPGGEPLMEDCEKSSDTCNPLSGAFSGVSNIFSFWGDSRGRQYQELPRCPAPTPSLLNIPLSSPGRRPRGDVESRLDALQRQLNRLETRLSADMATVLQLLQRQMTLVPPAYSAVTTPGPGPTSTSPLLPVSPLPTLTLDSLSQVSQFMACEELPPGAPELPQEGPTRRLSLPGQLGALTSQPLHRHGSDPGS
row,SMILES,"hERG current change (%, negative = inhibition) at 10uM [%]"
1,CCOc1ccccc1CNC(=O)CNC(=O)c1cccs1,6.43
2,CCN1C(=O)C(CC(=O)NCc2ccc(Cl)cc2)N(CC)C1=O (stereo not drawn),-3.61
3,Cc1ccc(-n2nnnc2SCC(=O)c2ccc3c(c2)NC(=O)CO3)c(C)c1,8.2
4,CCOc1ccc(C2NC(=O)c3ccccc3O2)cc1 (stereo not drawn),5.34
5,CCOC(=O)c1ccc([N+](=O)[O-])c(CS(=O)(=O)c2ccc(Cl)cc2)c1,-37.9
6,Cc1csc(NC(=O)CSCC(=O)Nc2ccccc2)n1,4.57
7,Nc1nc2nonc2nc1N1CCCCC1,-0.289
8,Cc1cccc(NC(=O)c2cccc(Cn3cc(Br)c([N+](=O)[O-])n3)c2)c1C,13.7
9,COc1ccc(OCc2cc(C(=O)NC(C)c3csc(C)n3)no2)c(Cl)c1 (stereo not drawn),9.12
10,CN1C(C(=O)Nc2ccccn2)=C(O)c2sc(Cl)cc2S1(=O)=O,7.69
11,CN1CCc2c(sc(/N=C/c3c[nH]c4ccccc34)c2C(N)=O)C1,11.2
12,COc1ccc(S(=O)(=O)N2CCN(Cc3cc(OC)c(OC)cc3OC)CC2)cc1.O=C(O)C(=O)O,-11.5
13,O=C(NC1CCCCC1)c1cc([N+](=O)[O-])ccc1N1CCCCC1,-17
14,CC(OC(=O)c1ccc2ncsc2c1)C(=O)NC1CCCCC1C (stereo not drawn),3.22
15,Cc1nc(SCC(=O)NCc2ccccc2)c2c(=O)n(C)c(=O)n(C)c2n1,-14
16,COc1ccc(-c2noc(-c3ccc4c(c3)OCO4)n2)cc1,-3.35
17,CCCOc1ccc(C(=O)c2ccccc2C(=O)OC2CCOC2=O)cc1OCCC (stereo not drawn),-20.9
18,O=C(N/N=C/c1ccccc1OC(=O)c1ccc2c(c1)OCO2)c1ccccc1,8.48
19,Cc1ccc(CNC(=O)c2ccc(N3CCC4(CC3)CC(c3ccccc3)=NO4)c(NC(=O)c3ccc(Cl)c([N+](=O)[O-])c3)c2)cc1,0.207

row,SMILES,"hERG current change (%, negative = inhibition) at 10uM [%]"
1,COc1ccccc1C(=O)NNC(=S)NC(=O)c1sc2ccccc2c1Cl,6.92
2,Cc1cc2c(cc1C)CSC(c1ccccc1OC(=O)C(C)(C)C)SC2,-9.71
3,O=C1c2cccc3cccc(c23)C(=O)N1CCc1ccccc1,14.2
4,Cc1cc(C)n2nc(SCc3ncc(-c4ccccc4)o3)nc2n1,-32.8
5,CCNc1nc(NC(C)C)nc(NC(C)(C)C)n1,6.04
6,Brc1ccc(Oc2nsnc2N2CCOCC2)cc1,-46.4
7,COc1ccc(C2C(C(=O)NCc3ccccc3)=C(C)Nc3ncnn32)cc1OC (stereo not drawn),8.75
8,C/C(=C/c1ccccc1)C(=O)N1CC(C)OC(C)C1 (stereo not drawn),11.7
9,N#CC1=C(N)Oc2c(oc(CO)cc2=O)C1c1cccs1 (stereo not drawn),18.2
10,C=C1CCC[C@]2(C)C[C@H]3OC(=O)C(CNC(C)CCCC(C)C)[C@H]3CC12 (stereo partly drawn),-10.5
11,C=CCOc1ccc(CNn2cn[nH]c2=S)cc1OC,5.81
12,Cc1ccc(NC(=O)COCC(=O)Nc2ccc(F)cc2)cc1,1.03
13,O=C(Nc1c[nH]c(=O)[nH]c1=O)c1ccccc1Br,16.4
14,CC(=O)Nc1ccc(N=NC2C(=O)N(C(N)=S)N=C2C)cc1 (stereo not drawn),14.9
15,O=C(c1ccccc1NS(=O)(=O)c1cccc([N+](=O)[O-])c1)N1CCCC1,5.18
16,COc1ccccc1CNS(=O)(=O)c1cc2c3c(c1)CCN3C(=O)CC2,-4.02
17,O=C1CCCN1Cc1ccccc1,8.14
18,Nc1nonc1-n1nnc(C(=O)N/N=C/c2ccc(O)cc2)c1CN1CCCCCC1,11.5
19,CC(C)(C)Nc1nc(NN)nc(NC(C)(C)C)n1,11.8

row,SMILES,"hERG current change (%, negative = inhibition) at 10uM [%]"
1,Cc1cc(C(=O)Nn2c(C)nc3ccccc3c2=O)ccc1[N+](=O)[O-],3.82
2,COc1cc(C(=O)NCC(c2ccco2)N2CCCC2)ccc1OCc1c(C)noc1C (stereo not drawn),-21.1
3,Cc1ccc(CN(C(=O)c2ccc(Cl)c([N+](=O)[O-])c2)C2CCS(=O)(=O)C2)o1 (stereo not drawn),-22
4,COC(=O)/C(=C1/Oc2cc(C)oc(=O)c2S1)C(F)(F)F,13.4
5,CCN(CC)c1ccc(CNC(=O)C/C(C)=N/NC(=O)COc2ccc(C)cc2Br)cc1,-23.6
6,Cc1cc(C(=O)COC(=O)c2ccc3c(c2)NC(=O)CS3)c(C)n1CCc1ccc(Cl)cc1,25.7
7,COc1ccc(-c2csc(NC(=O)c3ccccc3OC)c2C(=O)O)cc1OC,20.6
8,CCOC(=O)c1c(S(=O)(=O)NCC(=O)Nc2ccc(OC)cc2)c(C)n(C)c1C,10.9
9,CN(C)c1ccc(NC(=O)CC(NCc2ccccn2)C(=O)O)cc1 (stereo not drawn),15.7
10,CNC(=S)Nc1cccc(C(C)=O)c1,10.5
11,CC(C)N(c1ccccc1)c1ccc(NC(=O)CCl)cc1,-1.05
12,COc1cccc(CN2CCN(CCCc3ccccc3)C(CCO)C2)c1OC (stereo not drawn),-48.6
13,CSc1ccc(CN2CCCCCC2)cc1,-35
14,CCOc1cccc(C(=O)Nc2cccc(-c3nnc(-c4ccccc4)o3)c2)c1,-16.4
15,COc1ccc(OCC(=O)NC(=O)c2ccccc2OC)c([N+](=O)[O-])c1,-14.1
16,CC(C)(C)Cc1nnc(NC(=O)CN2C(=O)c3ccccc3C2=O)s1,14.8
17,Cc1sc2nc(CSc3ncn[nH]3)[nH]c(=O)c2c1C,33.7
18,C=CCN(CC=C)C(=O)c1cccc(S(=O)(=O)N2c3ccccc3CC2C)c1 (stereo not drawn),-27.9
19,COc1ccc(Cn2nnnc2C(c2cc3cc(C)cc(C)c3[nH]c2=O)N2CCOCC2)cc1 (stereo not drawn),-58.2
